Measured values taken from PMC11638247.
No constants are given. Whether binding was seen depends on the method and setting. For some assays here: Binding seen in cells or lysates may run through a third protein. Some binding calls cover weakened binding; strength is not graded here.

Sequences of proteins named here, by UniProt entry; tags and fusion partners are left off.
UniProt Q9EPN1: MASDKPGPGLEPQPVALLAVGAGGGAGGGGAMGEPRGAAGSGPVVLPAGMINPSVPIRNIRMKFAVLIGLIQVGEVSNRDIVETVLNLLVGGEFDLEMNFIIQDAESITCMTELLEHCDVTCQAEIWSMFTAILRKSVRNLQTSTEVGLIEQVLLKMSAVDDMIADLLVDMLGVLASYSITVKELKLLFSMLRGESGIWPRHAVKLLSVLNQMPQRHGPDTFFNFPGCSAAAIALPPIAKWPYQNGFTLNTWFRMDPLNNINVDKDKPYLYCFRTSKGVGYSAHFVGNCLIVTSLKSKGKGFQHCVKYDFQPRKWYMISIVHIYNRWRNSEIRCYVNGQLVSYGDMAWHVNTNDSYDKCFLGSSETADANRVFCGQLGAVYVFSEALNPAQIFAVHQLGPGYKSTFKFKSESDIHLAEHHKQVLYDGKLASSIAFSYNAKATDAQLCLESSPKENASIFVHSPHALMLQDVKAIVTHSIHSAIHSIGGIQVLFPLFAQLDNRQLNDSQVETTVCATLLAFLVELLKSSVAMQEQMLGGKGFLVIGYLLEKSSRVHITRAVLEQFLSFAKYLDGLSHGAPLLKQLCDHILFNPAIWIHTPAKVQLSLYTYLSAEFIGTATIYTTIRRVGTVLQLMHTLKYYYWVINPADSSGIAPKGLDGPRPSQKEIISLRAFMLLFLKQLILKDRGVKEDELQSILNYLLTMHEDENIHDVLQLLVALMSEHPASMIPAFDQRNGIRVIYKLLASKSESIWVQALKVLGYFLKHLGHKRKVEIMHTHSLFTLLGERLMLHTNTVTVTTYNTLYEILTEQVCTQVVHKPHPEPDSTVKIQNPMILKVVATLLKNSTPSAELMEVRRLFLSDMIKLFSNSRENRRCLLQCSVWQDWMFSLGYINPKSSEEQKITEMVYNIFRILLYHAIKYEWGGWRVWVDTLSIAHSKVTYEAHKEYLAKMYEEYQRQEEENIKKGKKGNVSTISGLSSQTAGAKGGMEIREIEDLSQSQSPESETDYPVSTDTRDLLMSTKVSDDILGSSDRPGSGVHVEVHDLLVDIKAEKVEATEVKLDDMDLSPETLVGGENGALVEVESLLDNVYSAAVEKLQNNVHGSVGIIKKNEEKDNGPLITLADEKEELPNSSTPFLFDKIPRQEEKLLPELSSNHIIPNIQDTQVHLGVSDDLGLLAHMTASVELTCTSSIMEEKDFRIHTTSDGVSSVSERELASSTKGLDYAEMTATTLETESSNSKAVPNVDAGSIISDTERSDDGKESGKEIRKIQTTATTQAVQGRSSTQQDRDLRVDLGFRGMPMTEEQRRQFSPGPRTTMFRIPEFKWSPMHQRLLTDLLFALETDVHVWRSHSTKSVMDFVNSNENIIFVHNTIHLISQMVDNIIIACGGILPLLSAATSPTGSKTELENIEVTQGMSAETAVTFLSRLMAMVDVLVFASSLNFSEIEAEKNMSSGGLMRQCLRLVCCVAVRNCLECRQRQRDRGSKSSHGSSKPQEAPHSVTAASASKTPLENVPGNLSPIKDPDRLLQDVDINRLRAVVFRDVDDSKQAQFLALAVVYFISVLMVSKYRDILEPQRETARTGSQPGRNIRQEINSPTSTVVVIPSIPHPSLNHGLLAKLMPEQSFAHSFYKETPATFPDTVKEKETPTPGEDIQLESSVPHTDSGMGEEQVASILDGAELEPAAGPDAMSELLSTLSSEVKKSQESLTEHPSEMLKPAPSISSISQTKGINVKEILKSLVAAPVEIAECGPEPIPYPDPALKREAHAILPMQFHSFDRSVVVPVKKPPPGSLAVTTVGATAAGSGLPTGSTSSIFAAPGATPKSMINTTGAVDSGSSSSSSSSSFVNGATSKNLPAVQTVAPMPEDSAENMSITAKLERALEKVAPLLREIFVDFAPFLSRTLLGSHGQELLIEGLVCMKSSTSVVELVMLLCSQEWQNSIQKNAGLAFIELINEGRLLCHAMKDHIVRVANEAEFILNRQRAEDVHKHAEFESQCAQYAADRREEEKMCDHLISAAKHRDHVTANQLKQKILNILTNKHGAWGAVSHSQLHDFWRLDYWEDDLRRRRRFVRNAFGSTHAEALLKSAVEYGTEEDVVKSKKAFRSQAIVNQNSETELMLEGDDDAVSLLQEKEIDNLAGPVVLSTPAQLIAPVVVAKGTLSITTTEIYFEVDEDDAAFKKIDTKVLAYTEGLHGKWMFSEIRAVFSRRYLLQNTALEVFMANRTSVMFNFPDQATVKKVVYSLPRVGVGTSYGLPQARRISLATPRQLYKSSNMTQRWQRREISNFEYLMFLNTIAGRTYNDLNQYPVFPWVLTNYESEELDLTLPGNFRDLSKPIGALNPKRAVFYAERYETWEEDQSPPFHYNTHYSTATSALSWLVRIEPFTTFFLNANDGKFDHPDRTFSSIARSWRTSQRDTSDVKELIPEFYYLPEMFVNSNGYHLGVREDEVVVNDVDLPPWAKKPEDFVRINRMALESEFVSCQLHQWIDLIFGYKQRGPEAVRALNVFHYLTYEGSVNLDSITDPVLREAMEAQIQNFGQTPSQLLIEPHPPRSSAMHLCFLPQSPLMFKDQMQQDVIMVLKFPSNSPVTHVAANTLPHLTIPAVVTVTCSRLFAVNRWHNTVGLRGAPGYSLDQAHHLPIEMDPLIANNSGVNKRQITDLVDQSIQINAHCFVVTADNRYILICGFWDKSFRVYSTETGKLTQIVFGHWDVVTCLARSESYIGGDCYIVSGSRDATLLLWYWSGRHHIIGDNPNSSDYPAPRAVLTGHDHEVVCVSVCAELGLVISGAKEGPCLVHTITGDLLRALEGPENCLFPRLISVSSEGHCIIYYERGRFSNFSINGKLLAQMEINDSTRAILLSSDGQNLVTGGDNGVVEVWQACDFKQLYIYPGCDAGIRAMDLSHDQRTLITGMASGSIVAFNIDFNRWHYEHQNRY

Experiments:
[1] = target: T1, Gephyrin (endogenous) (mouse (endogenous in cortex)) (UniProt Q8BUV3); test: co-IP; antibody on Dynabeads Protein G incubated 2-4 h with adult mouse cortical lysate P2; IM-Ac buffer with 1% Triton, pH 7.2, 4 °C; Western blot
T1 sequence: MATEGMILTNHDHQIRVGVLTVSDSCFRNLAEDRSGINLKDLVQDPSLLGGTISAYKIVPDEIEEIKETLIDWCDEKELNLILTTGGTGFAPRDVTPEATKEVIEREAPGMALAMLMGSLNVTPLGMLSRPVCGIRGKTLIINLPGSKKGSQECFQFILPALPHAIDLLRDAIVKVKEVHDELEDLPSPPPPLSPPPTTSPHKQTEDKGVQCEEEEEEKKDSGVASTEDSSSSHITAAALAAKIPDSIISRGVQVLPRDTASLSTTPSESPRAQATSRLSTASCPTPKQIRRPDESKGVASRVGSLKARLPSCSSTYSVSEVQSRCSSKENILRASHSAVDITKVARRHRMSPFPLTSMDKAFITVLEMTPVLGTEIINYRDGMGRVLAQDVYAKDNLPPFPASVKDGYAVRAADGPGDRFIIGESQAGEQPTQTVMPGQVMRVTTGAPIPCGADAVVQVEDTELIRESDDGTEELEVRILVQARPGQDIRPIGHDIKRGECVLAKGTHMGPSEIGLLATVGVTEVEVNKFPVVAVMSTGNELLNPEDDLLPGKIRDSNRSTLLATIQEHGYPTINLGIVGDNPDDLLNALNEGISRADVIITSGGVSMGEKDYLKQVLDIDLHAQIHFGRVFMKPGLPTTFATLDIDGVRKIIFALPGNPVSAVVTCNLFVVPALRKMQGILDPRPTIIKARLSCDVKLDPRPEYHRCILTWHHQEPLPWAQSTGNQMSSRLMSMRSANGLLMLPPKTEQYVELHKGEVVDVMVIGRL

[2] = target: T2, GABAA receptor γ2 subunit (GABAAR γ2-containing receptors), endogenous (mouse (endogenous in cortex)) (UniProt P22723); test: as above
T2 sequence: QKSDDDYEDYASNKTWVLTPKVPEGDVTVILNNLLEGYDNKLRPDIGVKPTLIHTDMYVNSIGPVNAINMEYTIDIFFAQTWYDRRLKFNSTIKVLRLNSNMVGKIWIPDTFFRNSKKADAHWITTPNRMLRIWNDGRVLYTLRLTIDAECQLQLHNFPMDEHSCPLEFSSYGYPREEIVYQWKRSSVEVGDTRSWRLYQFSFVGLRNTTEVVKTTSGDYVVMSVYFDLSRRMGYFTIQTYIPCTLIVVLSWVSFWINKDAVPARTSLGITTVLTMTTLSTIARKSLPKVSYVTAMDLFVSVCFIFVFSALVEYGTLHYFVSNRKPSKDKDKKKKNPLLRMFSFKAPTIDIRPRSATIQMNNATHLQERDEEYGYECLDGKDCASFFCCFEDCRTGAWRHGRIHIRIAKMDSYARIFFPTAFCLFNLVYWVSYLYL

[3] = target: T3, Gephyrin peptide No. 2 (mouse); test: peptide or protein array; gephyrin peptides (residues 171-375) immobilised in CelluSpot format; incubated with whole brain lysate 5 h at RT; bound Nbea detected with anti-neurobeachin antibodies, chemiluminescence; only the target purified
T3 sequence (peptide): VKEVHDELEDLPSPP

[4] = target: T4, Gephyrin peptide No. 39 (mouse); test: as above
T4 sequence (peptide): KAFITVLEMTPVLGT

[5] = target: T5, Gephyrin peptide No. 19 (mouse); test: as above
T5 sequence (peptide): ASLSTTPSESPRAQA

## Neurobeachin (endogenous) (from UniProt Q9EPN1 1-2936)
[1]
  binding: binds
[2]
  binding: binds
[3]
  binding: binds
[4]
  binding: binds
[5]
  binding: no binding
